Test results reported in PubChem BioAssay AID588855 (National Center for Advancing Translational Sciences (NCATS), 2011).
Screen size: about 410,000 compounds; about 5,000 (1.2%) were called active. Inconclusive results, whose numbers are uncertain, are shown with a selection of clear calls. The call rests on the fitted dose curve; in most records, active means well fitted inhibition curve with a large enough effect; inconclusive means small, poorly fitted or top-dose-only effect; inactive means no such curve, though single readings can be large or run the other way. Potencies beside an inconclusive call are fits to weak or partial responses and may not hold up.

Assay: qHTS for Inhibitors of TGF-b; further: nearly all actives have a fitted effect of over 65% in size
Conditions: HepG2 CAGA-GFP TGF-b/SMAD3 reporter, GFP fluorescence, 18 h, TGF-beta stimulated, 500 pg/mL final; series mostly up to 46.1 µM
In short: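 Inhibition was scored as loss of TGF-beta-induced (500 pg/mL final, 18 hours, 37 degrees C) GFP in HEPG2 cells carrying a CAGA-GFP reporter, in DMEM with 1% FBS. Well GFP was summed per cell; Activity was normalised to unstimulated and stimulated DMSO wells, then concentration-response fitting.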
Potency means the concentration at half of the fitted maximal effect; tags describe the fitted curve by direction and shape.

SMILES | Potency
CCOc1ccc(C(=O)N/N=C/c2cccc3cccnc23)cc1 | inconclusive: 5.62 µM [inhibitor, full curve, poor fit]
Cc1ccc(C(=O)N(C)CCOc2ccccc2)cc1S(=O)(=O)N1CCCCC1 | inconclusive: 14.1 µM [inhibitor, partial curve, poor fit]
COc1ccc(C)cc1NC(=O)CSc1ccc(-c2cccnc2)nn1 | inconclusive: 14.1 µM [inhibitor, single point]
O=C(NCCCN1CCCC1=O)c1cccc(S(=O)(=O)N2CCN(c3ccccc3)CC2)c1 | inactive
C=CCn1c(NS(=O)(=O)c2ccccc2)c(S(=O)(=O)c2ccc(C)cc2)c2nc3ccccc3nc21 | inconclusive: 3.16 µM [inhibitor, partial curve, poor fit]
Cc1ccc(NC(=O)CN2C(=O)NC(Cc3ccccc3)C2=O)c(Br)c1 (stereo not drawn) | inconclusive: 0.562 µM [inhibitor, full curve, poor fit]
COc1cc(C(=O)Nc2ccc(S(=O)(=O)N(C)c3ccccc3)cc2)cc(OC)c1OC | inactive
COc1ccc(Cl)cc1NC(=O)Cn1nc(-c2ccc(C)cc2)n(C)c1=S | inconclusive: 5.62 µM [inhibitor, full curve]
CC1CCN(S(=O)(=O)c2cc3c4c(c2)CC(=O)N4CCC3)CC1 | inconclusive: 0.501 µM [inhibitor, full curve, poor fit]
Cc1ccc(S(=O)(=O)NC(=O)C2(C)CCN2C(=O)CCc2ccc(Cl)cc2Cl)cc1 (stereo not drawn) | inactive
O=C(CSc1n[nH]c(-c2ccncc2)n1)Nc1ccccn1 | active: 11.2 µM
COC(=O)c1ccc(NC(=O)C(=O)NCCc2sc(-c3cccc(F)c3)nc2C)cc1 | inactive
CC1=NOC(=O)/C1=C\c1ccc(-c2ccccc2Br)o1 | inconclusive: 35.5 µM [inhibitor, single point]
O=C(CN1CCN(Cc2ccccc2)CC1)N=Nc1c(O)[nH]c2ccccc12 | inconclusive: 6.31 µM [inhibitor, partial curve, poor fit]
CCCCCCCOC(=O)c1nc(Cl)c(Cl)c(N)c1Cl | inconclusive: 35.5 µM [inhibitor, single point]
CS(=O)(=O)N1CCN(C(=O)c2cc(-c3cccnc3)nc3ccc(Cl)cc23)CC1 | inactive
Cc1cc(C)n(CC(O)CN2c3ccccc3Sc3ccccc32)n1 (stereo not drawn) | inconclusive: 20 µM [inhibitor, single point]
COc1ccc(CNC(=O)[C@@H]2CC=C[C@@H]3CCN(Cc4ccc(OC)c(OC)c4)C(=O)[C@@H]32)cc1 | inactive
Cc1ccc(S(=O)(=O)Nc2ccc(Nc3nccn4c(-c5cccc(OC(F)(F)F)c5)cnc34)cc2)cc1 | inconclusive: 15.8 µM [inhibitor, partial curve, poor fit]
N=C1/C(=C/c2ccco2)C(=O)N=C2SC(CC(=O)N3CCCC3)=NN12 | inactive
Cc1ccccc1N/C(SCc1ccc(Cl)cc1)=C(/C#N)C(=O)NCc1ccco1 | inactive
O=C(c1ccc(-c2ccccc2)cc1)C1CCCN(C(=O)Cn2cncn2)C1 (stereo not drawn) | inactive

SMILES | Potency
Cc1cccc(C)c1N1CC(c2nc3ccccc3n2CC(=O)OC(C)C)CC1=O (stereo not drawn) | inconclusive: 35.5 µM [inhibitor, single point]
O=C(O)/C=C/C(=O)N1N=C(c2ccco2)CC1c1ccco1 (stereo not drawn) | inactive
CC(C)(C)Cc1c(-c2ccccc2)nc2ccc(Cl)cn12 | inconclusive: 20 µM [inhibitor, single point]
CC(=O)Nc1cccc(Oc2ncnc3scc(-c4ccc(C)cc4)c23)c1 | inconclusive: 20 µM [inhibitor, single point]
CCOc1ccc(OCCC(=O)N2CCN(S(=O)(=O)c3cccc(F)c3)CC2)cc1 | inconclusive: 3.16 µM [inhibitor, partial curve, poor fit]
CCOC(=O)c1cc(S(=O)(=O)N2CCN(c3cc(C)ccc3C)CC2)[nH]n1 | inconclusive: 17.8 µM [inhibitor, single point]
CN1CCN(NC(=O)C2CC2)CC1 | inactive
COc1ccccc1N1CCN(S(=O)(=O)CCNC(=O)CCc2ccccc2)CC1 | inconclusive: 5.62 µM [inhibitor, single point]
Cc1cccc(C)c1NC(=O)CSc1nc(C)c(CC(=O)c2ccc(Br)cc2)c(C)c1C#N | inactive
CC(=O)Nc1ccc(S(=O)(=O)Oc2ccc(C(=S)N3CCC(O)CC3)cc2)cc1 | inactive
CC(C)(C)c1ccc(OCC(=O)O/N=C(\N)c2ccncc2)cc1 | inconclusive: 3.16 µM [inhibitor, single point]
Cc1cccc(NC(=O)c2cc(-c3ccc(C)s3)nc3ccccc23)n1 | inconclusive: 35.5 µM [inhibitor, single point]
O=C(CSc1n[nH]c(-c2ccccc2)n1)NCCCc1ccccc1 | inconclusive: 20 µM [inhibitor, single point]
CC(=O)N1CCN(C(=O)CCN(c2ccccc2)S(=O)(=O)c2ccc(C)cc2)CC1 | inactive
Cc1cc(Nc2ccc3c(c2)OCCO3)n2nc(C)nc2n1 | inactive
COc1cccc(-c2nn(-c3ccc(C)cc3)cc2C(=O)N(C)CC(=O)Nc2cccc(F)c2)c1 | inconclusive: 35.5 µM [inhibitor, partial curve, poor fit]
CC(=O)N1CCN(S(=O)(=O)c2cccc(C(=O)Nc3nc4c(s3)CCCC4)c2)CC1 | inconclusive: 2 µM [inhibitor, partial curve, poor fit]
CC(=O)Nc1ccc(NC(=O)C2CCN(c3c(Cc4ccccc4)c(C)nc4ncnn34)CC2)cc1 | inconclusive: 1.12 µM [inhibitor, full curve, poor fit]
O=C(NC1CCCC1)C(c1ccc(F)cc1)N(Cc1ccc(F)cc1)C(=O)CCl (stereo not drawn) | inactive
Cc1cccc(NC(=O)C2CCN(S(=O)(=O)c3c(C)noc3/C=C/c3ccco3)CC2)n1 | inactive
COCCCN1C(=O)C(CC(=O)NCCCCc2ccccc2)CC(C(=O)N(C(C)C)C(C)C)=C1C (stereo not drawn) | inconclusive: 12.6 µM [inhibitor, single point]
